Experimental data: patent US4716147A, “Synthetic airial peptides” (Monsanto Company, priority 1986, dated 1987)
Part of at least one peptide drawing is inferred or uncertain, most often the ends. Positions of bridges follow the written chain, without caps; N, C: chain ends. Residues, ends and D or L forms follow the SMILES beside them.

Tests used:
[1] = system: atrial peptide receptor on rabbit lung membranes; experiment: Receptor binding assay (rabbit lung receptor assay, RRA); details: displacement of 125I-labeled AP-III; relative to AP-III = 1.0
[2] = system: spiral strips of rabbit thoracic aorta; experiment: Rabbit aorta relaxation assay (RA); format: cell-based; details: relative to atriopeptin III = 1.0; tone induced by 4.5x10^-8 M norepinephrine
[3] = system: pentobarbital anesthetized beagle dogs; experiment: Canine renal function test (natriuresis and renal blood flow); format: in vivo, dog; details: intrarenal artery injection, 1, 3, 10 and 30 μg; relative to atriopeptin III = 1.0

SMILES | RRA = Rabbit lung receptor assay, relative binding affinity (IC50 for AP-III/IC50 for the peptide) [1] | RA = Rabbit aorta relaxation assay, relative biological activity [2] | ΔRBF = Change in renal blood flow, relative biological activity [3] | ΔUNa V = Change in urinary sodium excretion, relative biological activity [3]
CC[C@H](C)[C@@H]1NC(=O)[C@H](CCCNC(=N)N)NC(=O)[C@H](CC(=O)O)NC(=O)[C@H]([C@@H](C)CC)NC(=O)[C@H](CCCNC(=N)N)NC(=O)CNC(=O)CNC(=O)[C@H](Cc2ccccc2)NC(=O)[C@@H](NC(=O)[C@H](CO)NC(=O)[C@@H](N)CO)CSSC[C@@H](C(=O)N[C@@H](CC(N)=O)C(=O)N[C@@H](CO)C(=O)O)NC(=O)CNC(=O)[C@H](CC(C)C)NC(=O)CNC(=O)[C@H](CO)NC(=O)[C@H](CCC(N)=O)NC(=O)[C@H](C)NC(=O)CNC1=O [AP-I, reference compound] (H-SSCFGGRIDRIGAQSGLGCNS-OH; disulfide 3-19) | 0.2 | 0.012 | – | –
CC[C@H](C)[C@@H]1NC(=O)[C@H](CCCNC(=N)N)NC(=O)[C@H](CC(=O)O)NC(=O)[C@H]([C@@H](C)CC)NC(=O)[C@H](CCCNC(=N)N)NC(=O)CNC(=O)CNC(=O)[C@H](Cc2ccccc2)NC(=O)[C@@H](NC(=O)[C@H](CO)NC(=O)[C@@H](N)CO)CSSC[C@@H](C(=O)N[C@@H](CC(N)=O)C(=O)N[C@@H](CO)C(N)=O)NC(=O)CNC(=O)[C@H](CC(C)C)NC(=O)CNC(=O)[C@H](CO)NC(=O)[C@H](CCC(N)=O)NC(=O)[C@H](C)NC(=O)CNC1=O [AP-I-NH2, reference compound] (H-SSCFGGRIDRIGAQSGLGCNS-NH2; disulfide 3-19) | 0.4 | 0.14 | – | –
CC[C@H](C)[C@@H]1NC(=O)[C@H](CCCNC(=N)N)NC(=O)[C@H](CC(=O)O)NC(=O)[C@H]([C@@H](C)CC)NC(=O)[C@H](CCCNC(=N)N)NC(=O)CNC(=O)CNC(=O)[C@H](Cc2ccccc2)NC(=O)[C@@H](NC(=O)[C@H](CO)NC(=O)[C@@H](N)CO)CSSC[C@@H](C(=O)N[C@@H](CC(N)=O)C(=O)N[C@@H](CO)C(=O)N[C@@H](Cc2ccccc2)C(=O)N[C@@H](CCCNC(=N)N)C(N)=O)NC(=O)CNC(=O)[C@H](CC(C)C)NC(=O)CNC(=O)[C@H](CO)NC(=O)[C@H](CCC(N)=O)NC(=O)[C@H](C)NC(=O)CNC1=O [AP-II-NH2, reference compound] (H-SSCFGGRIDRIGAQSGLGCNSFR-NH2; disulfide 3-19) | 3.2 | 2.4 | 2 | 2
CC[C@H](C)[C@@H]1NC(=O)[C@H](CCCNC(=N)N)NC(=O)[C@H](CC(=O)O)NC(=O)[C@H]([C@@H](C)CC)NC(=O)[C@H](CCCNC(=N)N)NC(=O)CNC(=O)CNC(=O)[C@H](Cc2ccccc2)NC(=O)[C@@H](NC(=O)[C@H](CO)NC(=O)[C@@H](N)CO)CSSC[C@@H](C(=O)N[C@@H](CC(N)=O)C(=O)N[C@@H](CO)C(=O)N[C@@H](Cc2ccccc2)C(=O)N[C@@H](CCCNC(=N)N)C(=O)N[C@@H](Cc2ccc(O)cc2)C(=O)O)NC(=O)CNC(=O)[C@H](CC(C)C)NC(=O)CNC(=O)[C@H](CO)NC(=O)[C@H](CCC(N)=O)NC(=O)[C@H](C)NC(=O)CNC1=O [AP-III, reference compound] (H-SSCFGGRIDRIGAQSGLGCNSFRY-OH; disulfide 3-19) | 1.0 | 1.0 | 1 | 1
CC[C@H](C)[C@@H]1NC(=O)[C@H](CCCNC(=N)N)NC(=O)[C@H](CC(=O)O)NC(=O)[C@H]([C@@H](C)CC)NC(=O)[C@H](CCCNC(=N)N)NC(=O)CNC(=O)CNC(=O)[C@H](Cc2ccccc2)NC(=O)[C@@H](NC(=O)[C@H](CCCNC(=N)N)NC(=O)[C@H](CCCNC(=N)N)NC(=O)[C@@H](N)CC(C)C)CSSC[C@@H](C(=O)N[C@@H](CC(N)=O)C(=O)N[C@@H](CO)C(=O)N[C@@H](Cc2ccccc2)C(=O)N[C@@H](CCCNC(=N)N)C(N)=O)NC(=O)CNC(=O)[C@H](CC(C)C)NC(=O)CNC(=O)[C@H](CO)NC(=O)[C@H](CCC(N)=O)NC(=O)[C@H](C)NC(=O)CNC1=O [L-[R^1,R^2]-AP-II-NH2] (H-LRRCFGGRIDRIGAQSGLGCNSFR-NH2; disulfide 4-20) | 4.8 | 2.4 | – | –
CC[C@H](C)[C@@H]1NC(=O)[C@H](CCCNC(=N)N)NC(=O)[C@H](CC(=O)O)NC(=O)[C@H]([C@@H](C)CC)NC(=O)[C@H](CCCNC(=N)N)NC(=O)CNC(=O)CNC(=O)[C@H](Cc2ccccc2)NC(=O)[C@@H](NC(=O)[C@H](Cc2c[nH]cn2)NC(=O)[C@@H](N)Cc2c[nH]cn2)CSSC[C@@H](C(=O)N[C@@H](CC(N)=O)C(=O)N[C@@H](CO)C(=O)N[C@@H](Cc2ccccc2)C(=O)N[C@@H](CCCNC(=N)N)C(N)=O)NC(=O)CNC(=O)[C@H](CC(C)C)NC(=O)CNC(=O)[C@H](CO)NC(=O)[C@H](CCC(N)=O)NC(=O)[C@H](C)NC(=O)CNC1=O [[H^1,H^2]-AP-II-NH2] (H-HHCFGGRIDRIGAQSGLGCNSFR-NH2; disulfide 3-19) | .17 | .05 | – | –
CC[C@H](C)[C@@H]1NC(=O)[C@H](CCCNC(=N)N)NC(=O)[C@H](CC(=O)O)NC(=O)[C@H]([C@@H](C)CC)NC(=O)[C@H](CCCNC(=N)N)NC(=O)CNC(=O)CNC(=O)[C@H](Cc2ccccc2)NC(=O)[C@@H](NC(=O)[C@H](CCCNC(=N)N)NC(=O)[C@@H](N)CCCNC(=N)N)CSSC[C@@H](C(=O)N[C@@H](CC(N)=O)C(=O)N[C@@H](CO)C(=O)N[C@@H](Cc2ccccc2)C(=O)N[C@@H](CCCNC(=N)N)C(=O)N[C@@H](Cc2ccc(O)cc2)C(=O)O)NC(=O)CNC(=O)[C@H](CC(C)C)NC(=O)CNC(=O)[C@H](CO)NC(=O)[C@H](CCC(N)=O)NC(=O)[C@H](C)NC(=O)CNC1=O [[R^1,R^2]-AP-III] (H-RRCFGGRIDRIGAQSGLGCNSFRY-OH; disulfide 3-19) | 1.6 | – | 2 | –
CC[C@H](C)[C@@H]1NC(=O)[C@H](CCCNC(=N)N)NC(=O)[C@H](CC(=O)O)NC(=O)[C@H]([C@@H](C)CC)NC(=O)[C@H](CCCNC(=N)N)NC(=O)CNC(=O)CNC(=O)[C@H](CCCNC(=N)N)NC(=O)[C@@H](NC(=O)[C@H](CO)NC(=O)[C@@H](N)CO)CSSC[C@@H](C(=O)N[C@@H](CC(N)=O)C(=O)N[C@@H](CO)C(=O)N[C@@H](Cc2ccccc2)C(=O)N[C@@H](CCCNC(=N)N)C(N)=O)NC(=O)CNC(=O)[C@H](CC(C)C)NC(=O)CNC(=O)[C@H](CO)NC(=O)[C@H](CCC(N)=O)NC(=O)[C@H](C)NC(=O)CNC1=O [[R^4]-AP-II-NH2] (H-SSCRGGRIDRIGAQSGLGCNSFR-NH2; disulfide 3-19) | 3.1 | .016 | – | –
